In the supplement of paper PMC9446081:
Out of some 39,000 compounds screened, about 220 (0.56%) showed activity. The list shows a part of the results.

The molecules below were run on Escherichia coli K-12 BW25113 (assay: relative growth (OD600 normalised to plate interquartile mean) (fraction); higher = less growth inhibition, active = 0.2 or less). Conditions: 50 µM; LB; incubation time: overnight (16-24 h).
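Note: static incubation at 37 °C against the wild-type strain, values averaged over two biological replicates.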

`C[C@H]1CN([C@@H](C)CO)C(=O)c2cccc(NC(=O)C3CC3)c2O[C@@H]1CN(C)Cc1ccc2c(c1)OCO2` was tested. Which relative growth did it give?
Its relative growth is inactive: 0.728.

How did the relative growth turn out when `Cc1noc(C)c1NC(=O)Nc1ccc2c(c1)C(=O)N([C@@H](C)CO)C[C@@H](C)[C@@H](CN(C)Cc1ccccc1)OCCCC[C@@H](C)O2` was run?
The relative growth was inactive: 1.01.

With `C[C@H](CO)N1C[C@H](C)[C@H](CN(C)Cc2ccccc2)Oc2ccc(NC(=O)Nc3cccc4ccccc34)cc2C1=O` as the molecule, how does the relative growth read?
The relative growth was inactive: 0.986.

For `Cc1ccc(S(=O)(=O)[N-]Cl)cc1.[Na+]`, which relative growth is on record?
Its relative growth is inactive: 1.05.

With `C[C@@H]1CN([C@@H](C)CO)S(=O)(=O)c2ccc(-c3cccc(C#N)c3)cc2O[C@@H]1CN(C)C(=O)c1cccnc1` as the molecule, how does the relative growth read?
Its relative growth is inactive: 0.987.

For `NCCN1CCC[C@H](C(N)=O)C1`, which relative growth is on record?
Its relative growth is inactive: 1.

How did the relative growth turn out when `C[C@@H]1CCCCO[C@@H](CN(C)S(C)(=O)=O)[C@H](C)CN([C@@H](C)CO)C(=O)c2cc(NS(C)(=O)=O)ccc2O1` was run?
Its relative growth is inactive: 1.01.

`Nc1ncnc(NC[C@H]2CCCO2)c1[N+](=O)[O-]` was tested. Which relative growth did it give?
Its relative growth is inactive: 0.982.

How did the relative growth turn out when `C[C@@H]1CCCCO[C@H](CN(C)S(=O)(=O)c2ccccc2)[C@H](C)CN([C@H](C)CO)C(=O)c2cc(NC(=O)Nc3ccc(C(F)(F)F)cc3)ccc2O1` was run?
Its relative growth is inactive: 0.997.

`CC[C@@H](C)NC(=O)Cn1cnc2c1c(=O)n(C)c(=O)n2C` was tested. Which relative growth did it give?
Its relative growth is inactive: 0.949.

For `C[C@@H]1CN([C@@H](C)CO)C(=O)c2cc(NC(=O)Nc3ccccc3)ccc2O[C@H]1CN(C)Cc1ccc(Cl)c(Cl)c1`, which relative growth is on record?
The relative growth was inactive: 0.994.

For `Cc1ccc(S(=O)(=O)N(C)C[C@@H]2OCCCC[C@@H](C)Oc3ccc(NC(=O)CCC(F)(F)F)cc3C(=O)N([C@H](C)CO)C[C@H]2C)cc1`, which relative growth is on record?
Its relative growth is inactive: 1.01.

With `C[C@@H]1CCCCO[C@@H](CN(C)CC2CC2)[C@H](C)CN([C@@H](C)CO)C(=O)c2cc(NC(=O)NC3CCCCC3)ccc2O1` as the molecule, how does the relative growth read?
Its relative growth is inactive: 1.02.

`NC(=O)NCC#Cc1ccc2c(c1)[C@]1(C(=O)N2)[C@H](C(N)=O)[C@H]2C(=O)O[C@H](c3ccccc3)[C@H](c3ccccc3)N2[C@@H]1c1ccccc1OCCO` was tested. Which relative growth did it give?
The relative growth was inactive: 1.05.

Which relative growth does the source give for `Cc1nc(C(N)=O)c(N)n1CCO` here?
Its relative growth is inactive: 0.995.

`Cc1cccc(S(=O)(=O)N2C[C@H](O)COC[C@@H]3O[C@@H](CC(=O)NCc4ccc5c(c4)OCO5)CC[C@H]32)c1` was tested. Which relative growth did it give?
Its relative growth is inactive: 1.01.

`Cc1noc(C)c1NC(=O)N(C)C[C@H]1Oc2c(NC(=O)c3ccncc3)cccc2C(=O)N([C@@H](C)CO)C[C@@H]1C` was tested. Which relative growth did it give?
The relative growth was inactive: 0.98.

How did the relative growth turn out when `Cc1noc(C)c1NC(=O)Nc1ccc2c(c1)C(=O)N([C@@H](C)CO)C[C@H](C)[C@H](CN(C)C(=O)Nc1ccccc1)OCCCC[C@H](C)O2` was run?
The relative growth was inactive: 0.98.

For `COc1ccc(CN(C)C[C@@H]2OCCCC[C@@H](C)Oc3ccc(NC(=O)c4ccncc4)cc3C(=O)N([C@H](C)CO)C[C@@H]2C)cc1`, which relative growth is on record?
Its relative growth is inactive: 0.99.

How did the relative growth turn out when `C[C@H](CO)N1C[C@H](C)[C@@H](CN(C)C(=O)CCC(F)(F)F)OCCCC[C@H](C)Oc2ccc(NC(=O)NC3CCCCC3)cc2C1=O` was run?
The relative growth was inactive: 0.998.

Which relative growth does the source give for `Cn1cnc2c1c(=O)[nH]c(=O)n2C` here?
Its relative growth is inactive: 1.01.

With `C[C@@H]1CN([C@H](C)CO)C(=O)CCCn2nncc2CO[C@@H]1CN(C)S(=O)(=O)c1cn(C)cn1` as the molecule, how does the relative growth read?
Its relative growth is inactive: 1.

With `C[C@H](CO)N1C[C@H](C)[C@@H](CN(C)C(=O)Nc2ccccc2)OCCCC[C@H](C)Oc2ccc(NC(=O)c3ccncc3)cc2C1=O` as the molecule, how does the relative growth read?
The relative growth was inactive: 0.993.

`CC(C)CCCC(C)NC(C)C.Cl` (centres undefined) was tested. Which relative growth did it give?
The relative growth was inactive: 1.06.

`CN1C(=O)C[C@@H]2[C@@H]1CCN2C(=O)c1csnn1` was tested. Which relative growth did it give?
The relative growth was inactive: 0.997.

`CC1(C)CCC(c2ccc(Cl)cc2)=C(CN2CCN(c3ccc(C(=O)NS(=O)(=O)c4ccc(N[C@@H](CCN5CCOCC5)CSc5ccccc5)c(S(=O)(=O)C(F)(F)F)c4)cc3)CC2)C1` was tested. Which relative growth did it give?
Its relative growth is inactive: 0.999.

With `C[C@@H](O)CCCCn1c(=O)c2c(ncn2C)n(C)c1=O` as the molecule, how does the relative growth read?
Its relative growth is inactive: 1.01.

With `C[C@H]1CCCCO[C@@H](CN(C)S(=O)(=O)c2ccc(F)cc2)[C@@H](C)CN([C@@H](C)CO)C(=O)c2cc(NC(=O)Nc3cccc4ccccc34)ccc2O1` as the molecule, how does the relative growth read?
The relative growth was inactive: 1.03.

Which relative growth does the source give for `C[C@@H]1CN([C@@H](C)CO)C(=O)c2cccc(NC(=O)Nc3cccc4ccccc34)c2O[C@@H]1CN(C)S(=O)(=O)c1cccs1` here?
Its relative growth is inactive: 0.981.

Which relative growth does the source give for `Cc1cc(C(=O)Nc2cccc3c2O[C@H](CN(C)C(=O)NC(C)C)[C@H](C)CN([C@@H](C)CO)C3=O)n(C)n1` here?
Its relative growth is inactive: 1.05.

With `O=C(C[C@@H]1CC[C@@H]2[C@H](COC[C@H](O)CN2S(=O)(=O)c2cccc(Cl)c2)O1)NCc1ccc2c(c1)OCO2` as the molecule, how does the relative growth read?
The relative growth was inactive: 0.882.

For `Cc1ccc(S(=O)(=O)N(C)C[C@@H]2OCCCC[C@H](C)Oc3ccc(NC(=O)Nc4cccc5ccccc45)cc3C(=O)N([C@@H](C)CO)C[C@H]2C)cc1`, which relative growth is on record?
The relative growth was inactive: 1.05.

With `C[C@@H]1CCCCO[C@@H](CN(C)C(=O)Nc2ccc(F)cc2)[C@H](C)CN([C@H](C)CO)C(=O)c2cc(NC(=O)c3ccncc3)ccc2O1` as the molecule, how does the relative growth read?
The relative growth was inactive: 0.815.

How did the relative growth turn out when `Cc1cc(O[C@@H](CCC(F)(F)F)c2ccc(C(=O)NCCC(=O)O)cc2)cc(C)c1-c1ccc(C(C)(C)C)cc1` was run?
Its relative growth is inactive: 0.834.

With `COc1ccc(S(=O)(=O)Nc2ccc3c(c2)C(=O)N([C@H](C)CO)C[C@H](C)[C@@H](CN(C)Cc2ccc4c(c2)OCO4)OCCCC[C@@H](C)O3)cc1` as the molecule, how does the relative growth read?
The relative growth was inactive: 1.02.

Which relative growth does the source give for `O=C(C[C@@H]1CC[C@H]2[C@@H](COC[C@H](O)CN2C(=O)c2cccnc2)O1)NCC1CC1` here?
Its relative growth is inactive: 0.952.

With `CC(C)(CO)C(O)C(=O)NCCCO` (centres undefined) as the molecule, how does the relative growth read?
Its relative growth is inactive: 1.13.

With `COc1ccc(S(=O)(=O)Nc2cccc3c2O[C@@H](CN(C)C(=O)Nc2cccc4ccccc24)[C@H](C)CN([C@@H](C)CO)C3=O)cc1` as the molecule, how does the relative growth read?
The relative growth was inactive: 1.05.

For `CN(C)CC(=O)N[C@@H]1CC[C@@H](CCNS(=O)(=O)c2ccccc2)O[C@@H]1CO`, which relative growth is on record?
The relative growth was inactive: 1.01.

`C[C@@H]1NC(=O)[C@@H]2CCCN2C(=O)[C@H](CC(N)=O)NC(=O)[C@@H]2CSSC[C@H](N)C(=O)N[C@H]3CSSC[C@H](NC1=O)C(=O)N[C@@H]([C@@H](C)O)C(=O)NCC(=O)N[C@H](C(=O)N[C@@H](Cc1ccc(O)cc1)C(=O)O)CSSC[C@H](NC(=O)[C@H](Cc1ccc(O)cc1)NC(=O)[C@H](CCC(=O)O)NC3=O)C(=O)N2` was tested. Which relative growth did it give?
The relative growth was inactive: 0.968.

How did the relative growth turn out when `COc1ccc(S(=O)(=O)N(C)C[C@@H]2Oc3c(NS(C)(=O)=O)cccc3C(=O)N([C@H](C)CO)C[C@H]2C)cc1` was run?
The relative growth was inactive: 0.981.

For `OC(c1ccc(-c2ccc(CN3CCN(Cc4ccncc4)CC3)cc2)c(F)c1)(C(F)(F)F)C(F)(F)F`, which relative growth is on record?
Its relative growth is inactive: 1.04.

With `C[C@H](CO)N1C[C@H](C)[C@@H](CN(C)C(=O)Nc2ccccc2)OCCCC[C@H](C)Oc2ccc(NC(=O)C3CCCCC3)cc2C1=O` as the molecule, how does the relative growth read?
Its relative growth is inactive: 1.03.

How did the relative growth turn out when `C[C@H](CO)N1C[C@H](C)[C@H](CN(C)Cc2ccccc2)OCCCC[C@H](C)Oc2ccc(NC(=O)CCC(F)(F)F)cc2C1=O` was run?
The relative growth was inactive: 0.974.

Which relative growth does the source give for `O=C(O[C@@H]1O[C@H]2COC(=O)c3cc(O)c(O)c(O)c3-c3c(cc(O)c(O)c3O)C(=O)O[C@@H]([C@H]1O)[C@@H]2OC(=O)c1cc(O)c(O)c(O)c1-c1c(C(=O)O)cc(O)c(O)c1O)c1cc(O)c(O)c(O)c1` here?
Its relative growth is inactive: 0.557.

Which relative growth does the source give for `COC(=O)[C@@H]1CC(=O)N(C(C)C)C1` here?
Its relative growth is inactive: 1.

With `CO[C@H]1CN(C)C(=O)c2cc(NS(=O)(=O)CC(F)(F)F)ccc2OC[C@@H](C)N(Cc2ccccn2)C[C@@H]1C` as the molecule, how does the relative growth read?
Its relative growth is inactive: 0.887.

Which relative growth does the source give for `C[C@@H]1CCCCO[C@H](CN(C)C(=O)CCCN(C)C)[C@@H](C)CN([C@H](C)CO)C(=O)c2cc(NS(C)(=O)=O)ccc2O1` here?
Its relative growth is inactive: 1.

`C[C@@H]1CN([C@@H](C)CO)C(=O)c2cccc(NS(=O)(=O)c3cn(C)cn3)c2O[C@@H]1CN(C)Cc1ccncc1` was tested. Which relative growth did it give?
The relative growth was inactive: 0.968.

`CN(C)C(=O)C[C@H]1C=C[C@@H](NC(=O)C2CCOCC2)[C@@H](CO)O1` was tested. Which relative growth did it give?
The relative growth was inactive: 1.02.

Which relative growth does the source give for `C[C@@H]1CCCCO[C@@H](CN(C)C(=O)Nc2ccc(C(F)(F)F)cc2)[C@@H](C)CN([C@H](C)CO)C(=O)c2cc(NS(=O)(=O)c3ccc(F)cc3)ccc2O1` here?
The relative growth was inactive: 1.01.

Which relative growth does the source give for `C[C@H]1CCCCO[C@H](CN(C)C(=O)Nc2ccc(F)cc2)[C@@H](C)CN([C@@H](C)CO)C(=O)c2cc(NC(=O)c3ccncc3)ccc2O1` here?
The relative growth was inactive: 1.

With `C=CC[C@@H](CC(=O)NCCO)C(=O)N[C@@H](COC(=O)[C@@H](CC=C)CC(=O)OC(C)(C)C)Cc1c[nH]c2ccccc12` as the molecule, how does the relative growth read?
Its relative growth is inactive: 1.01.

`C[C@@H]1CN([C@H](C)CO)C(=O)CCCn2nncc2CO[C@H]1CN(C)C(=O)Nc1ccc(C(F)(F)F)cc1` was tested. Which relative growth did it give?
The relative growth was inactive: 0.947.

Which relative growth does the source give for `CN(C)C(=O)c1cccc(-c2cccc(-c3nc(C(=O)NCc4ccccc4)cc4c3[C@@H](CCO)N([S@](=O)C(C)(C)C)C4)c2)c1` here?
Its relative growth is inactive: 0.974.

Which relative growth does the source give for `COCC(=O)N(C)C[C@H]1Oc2cc(C#CCC3CCCC3)ccc2S(=O)(=O)N([C@@H](C)CO)C[C@@H]1C` here?
The relative growth was inactive: 1.01.

`CN(C)CC(=O)N[C@@H]1CC[C@@H](CCNC(=O)C2CCC2)O[C@H]1CO` was tested. Which relative growth did it give?
Its relative growth is inactive: 1.05.

`CCCNC(=O)C[C@@H]1CC[C@H]2[C@@H](COc3ccc(NS(=O)(=O)c4ccccc4C)cc3C(=O)N2C)O1` was tested. Which relative growth did it give?
The relative growth was inactive: 0.987.

`CC(C)c1c(C(=O)Nc2ccccc2)c(-c2ccccc2)c(-c2ccc(F)cc2)n1CC[C@@H](O)C[C@@H](O)CC(=O)O` was tested. Which relative growth did it give?
Its relative growth is inactive: 1.
